Measurements reported in PubChem BioAssay AID504832 (National Center for Advancing Translational Sciences (NCATS), 2011).
Hit rate of the full screen: of about 310,000 compounds, about 18,000 (5.8%) were called active. The inconclusive results got no clear call from the source; some entries with a clear call stand among them for comparison. The call rests on the fitted dose curve; in most records, active means well fitted inhibition curve with a large enough effect; inconclusive means small, poorly fitted or top-dose-only effect, or another doubt; inactive means no such curve, though single readings can be large or run the other way. Potencies of inconclusive entries are left out as doubtful fits.

Assay: Primary qHTS for delayed death inhibitors of the malarial parasite plastid, 48 hour incubation
Details: P. falciparum luciferase growth in erythrocytes; series mostly up to 28.7 µM; activity change, negative = inhibition: at the top concentration
Outline: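 Cell-based growth assay: transgenic P. falciparum expressing firefly luciferase, cultured in red cells within RPMI 1640 containing 0.5% w/v Albumax, 24 mM bicarbonate and gentamycin. A drop in luciferase activity indicates inhibition.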
On the % scale 0 is the no-effect control and ±100 the full control effect; potency means the concentration at half of the fitted maximal effect; tags describe the fitted curve by direction and shape.

Row | Compound | Potency | activity change, negative = inhibition
1 | COCCn1nnnc1C(c1ccc(OC)cc1)N1CCN(c2ccccc2F)CC1 (stereo unspecified) | inconclusive [inhibitor, single point] | 
2 | COc1cc(S(=O)(=O)Nc2cccc(C)c2)ccc1N=Cc1c(C)[nH]n(-c2ccccc2)c1=O |  | inactive: -4.07%
3 | Cc1nc(CCNC(=O)C2CCC(=O)N(Cc3ccc(Cl)cc3)C2)sc1C (stereo unspecified) | inconclusive [inhibitor, single point] | 
4 | O=C(CCc1ccc(S(=O)(=O)N2CCOCC2)cc1)Nc1cc(Cl)ccc1N1CCOCC1 | active: 6.57 µM | 
5 | Cc1cccc(NC(=O)c2ccc3c(=O)n4c(nc3c2)CCCCC4)n1 |  | inactive: 7.39%
6 | Cc1ccn2cc(C(=O)Nc3cccc(C(=O)NC4CC4)c3)nc2c1 |  | inactive: -27.4%
7 | O=S1(=O)CCC(NC(=S)NC2CCS(=O)(=O)C2)C1 (stereo unspecified) |  | inactive: -3.33%
8 | Cc1ccc(Nc2nc(N)nc(-c3oc4ccccc4c3C)n2)cc1 | inconclusive [inhibitor, single point] | 
9 | COc1cccc(N2CCN(C(c3ccccn3)c3nnnn3C(C)(C)C)CC2)c1 (stereo unspecified) | inconclusive [inhibitor, partial curve, poor fit] | 
10 | CN(C)c1cc[n+](Cc2ccccc2)cc1 | active: 0.928 µM | 
11 | Cc1ccc(NC(=O)Cc2nc(-c3c[nH]c(C(=O)N4CCCC4)c3)cs2)c(C)c1 | inconclusive [inhibitor, single point] | 
12 | CCCNC(=O)CSc1nc2ccccc2c(=O)n1CCC |  | inactive: 11.2%
13 | Oc1ccc(CN2CCC(Cc3ccccc3)CC2)c2cccnc12 | inconclusive [inhibitor, partial curve, poor fit] | 
14 | COc1ccc(N2CCN(c3ccnc4cc(Cl)ccc34)CC2)cc1 | inconclusive [inhibitor, partial curve] | 
15 | C=CCn1c(N)c(C(=O)Nc2ccc(C)c(C)c2)c2nc3ccccc3nc21 | inconclusive [inhibitor, single point] | 
16 | CCOc1ccc(N(C)S(=O)(=O)c2cc(-c3cc(C)no3)ccc2C)cc1 | inconclusive [inhibitor, single point] | 
17 | Cc1ccc(C)c(-c2nc3ccc(N)cc3[nH]2)c1 | inconclusive [inhibitor, single point] | 
18 | CNCC(O)CN(c1ccccc1)c1ccccc1 (stereo unspecified) | inconclusive [inhibitor, single point] | 
19 | COc1ccccc1N1CCN(S(=O)(=O)CCNC(=O)C23CC4CC(CC(C4)C2)C3)CC1 | inconclusive [inhibitor, single point] | 
20 | CN1CCN(S(=O)(=O)c2ccc(N3CCN(c4ccccc4O)CC3)c([N+](=O)[O-])c2)CC1 | active: 11.7 µM | 
21 | COc1ccc(N/C=C/C(=O)c2cc(OC)c(OC)c(OC)c2)cc1 |  | inactive: -11.6%
22 | OC(CNCc1ccc(-c2ccccc2)cc1)c1ccccc1 (stereo unspecified) | inconclusive [inhibitor, full curve, poor fit] | 

Row | Compound | Potency | activity change, negative = inhibition
23 | COc1ccc(NC(=O)CN(C)C(=O)c2cc(-c3ccc(Cl)cc3)nc3ccccc23)cc1 | inconclusive [inhibitor, single point] | 
24 | CN(C)c1cccc(C(=O)NC2CCCc3ccccc32)c1 (stereo unspecified) | inconclusive [inhibitor, partial curve] | 
25 | COc1ccc2[nH]c(=O)c(-c3noc(-c4ccccc4)n3)cc2c1 | inconclusive [inhibitor, single point] | 
26 | Cc1ccc(Cl)cc1N1CCN(CCN)CC1 | inconclusive [inhibitor, single point] | 
27 | COc1ccc(S(=O)(=O)N2CCOCC2)cc1NC(=O)COC(=O)C1CC1C (stereo unspecified) | inconclusive [inhibitor, single point] | 
28 | O=C(COc1ccc(Cl)cc1)Nc1ccc2oc(=O)ccc2c1 |  | inactive: -2.67%
29 | O=C(CCCN1C(=O)/C(=C\c2cccs2)SC1=S)Nc1ccccn1 | inconclusive [inhibitor, partial curve, poor fit] | 
30 | CC(C)(C)C(=O)n1nc(-c2ccccc2)oc1=O |  | inactive: -1.79%
31 | COc1ccc(C(=O)NCc2ccc(F)cc2)cc1S(=O)(=O)N1CCCC1 | inconclusive [inhibitor, partial curve] | 
32 | COc1ccccc1C(=O)COC(=O)c1cnc(C)cn1 | inconclusive [inhibitor, partial curve, poor fit] | 
33 | COc1ccc(C(=O)/C=C/Nc2ccc(S(=O)(=O)Nc3nc(C)cc(C)n3)cc2)c(OC)c1 | inconclusive [inhibitor, single point] | 
34 | O=C(NC1CCN(Cc2ccccc2)CC1)C1CCN(S(=O)(=O)c2ccc(Cl)cc2)CC1 | inconclusive [inhibitor, partial curve] | 
35 | CC(C)(C)c1ccc(C(=O)N/C(=C\c2cccs2)C(=O)NCc2ccco2)cc1 | inconclusive [inhibitor, single point] | 
36 | CCOC(=O)N1CCN(C(=O)COc2cccc3c2CCN(Cc2ccccc2F)C3=O)CC1 | inconclusive [inhibitor, partial curve] | 
37 | CCc1ccc(NC(=O)c2cccc(C(=O)Nc3ccc(CC)cc3)n2)cc1 | inconclusive [inhibitor, single point] | 
38 | CCOC(=O)C1CCN(C(=O)COC(=O)c2cccc(F)c2)CC1 | inconclusive [inhibitor, partial curve, poor fit] | 
39 | CCN(CC)c1ccc(NC(=O)C2CCCC2)cc1 | inconclusive [inhibitor, single point] | 
40 | CCCc1cc(=O)oc2cc(C)c(CN3CCCC3)c(O)c12 | inconclusive [inhibitor, single point] | 
41 | Cn1ccnc1SCC(=O)c1ccc(OC(F)F)cc1 |  | inactive: 118%
42 | COc1ccc(N2C3=C(CC4=C2CCCC4=O)C(=O)CCC3)cc1 | inconclusive [inhibitor, single point] | 
43 | Cc1ccc2c(c1)/C(=C/c1ccc(F)cc1)C(=O)N2 | inconclusive [inhibitor, partial curve, poor fit] | 
44 | O=C(NC1CCCCCCC1)c1ccc2c(c1)OCO2 |  | inactive: -60%

Row | Compound | Potency | activity change, negative = inhibition
45 | COc1ccc(/C=C/C(=O)Nc2cc(C)nn2-c2nc3ccccc3n2Cc2cccc([N+](=O)[O-])c2)cc1 | inconclusive [inhibitor, partial curve, poor fit] | 
46 | COc1ccc(N2CC(C(=O)NCCc3ccc(Cl)cc3)CC2=O)cc1 (stereo unspecified) |  | inactive: 3.02%
47 | COc1cc(CNC(C)(C)C)cc(Br)c1OCc1cccs1 | inconclusive [inhibitor, single point] | 
48 | CN(C)c1ccc(C(C(=O)NC2CCCC2)N(Cc2cccnc2)C(=O)c2snc(C(N)=O)c2N)cc1 (stereo unspecified) | inconclusive [inhibitor, partial curve, poor fit] | 
49 | N=c1c(C(=O)NC2CCCCC2)cc2c(=O)n3ccccc3nc2n1CCc1ccccc1 | active: 1.47 µM | 
50 | C#CCOCCOCCOCCNc1nc(N2CCN(C(=O)[C@H]([C@@H](C)CC)n3cc([C@@H](N)Cc4ccc(O)cc4)nn3)CC2)nc(N2CCN(C(=O)[C@H]([C@@H](C)CC)n3cc([C@@H](N)CC(C)C)nn3)CC2)n1 | active: 1.85 µM | 
51 | O=[N+]([O-])c1cc(C(F)(F)F)ccc1NCCc1c[nH]c2ccc(O)cc12 | inconclusive [inhibitor, partial curve, poor fit] | 
52 | O=C1C2C3CC(C(Br)C3Br)C2C(=O)N1c1ccccn1 (stereo unspecified) | inconclusive [inhibitor, partial curve, poor fit] | 
53 | CCN(CC)c1ccc(CNc2nc3ccccc3n2CCN2CCOCC2)cc1 | inconclusive [inhibitor, partial curve, poor fit] | 
54 | C(=N\Nc1nc2ccccc2[nH]1)/c1ccc2c(c1)OCO2 | active: 0.465 µM | 
55 | COc1ccc2cc(-c3[nH]ncc3CN3CCCC3c3nonc3C)ccc2c1 (stereo unspecified) |  | inactive: -22.2%
56 | CCc1nc2ccc(C(=O)NCCCN3CCN(c4ccc(F)cc4)CC3)cc2nc1CC | inconclusive [inhibitor, single point] | 
57 | COc1ccc(CN2CCC(C(=O)Nc3ccc(Oc4cccnc4)cc3)CC2)cc1 | active: 11.7 µM | 
58 | O=S(=O)(c1cccs1)N1CCC(CO)(Cc2ccc(Cl)cc2)CC1 |  | inactive: 25.2%
59 | O=C1CCCC2=C1C(c1ccsc1)CC(=O)N2c1ccccc1F (stereo unspecified) |  | inactive: 10.3%
60 | Cc1cc(NC(=O)CSc2nc(CCC3CCCC3)nc3ccccc23)no1 | inconclusive [inhibitor, single point] | 
61 | O=C(c1ccc(F)c(S(=O)(=O)N2CCOCC2)c1)N(CCc1ccccc1)Cc1ccccc1 | inconclusive [inhibitor, partial curve] | 
62 | O=C(N/N=C/c1ccc(C(=O)O)cc1)C1=NNC(c2ccccc2)(c2ccccc2)C1 | inconclusive [inhibitor, partial curve, poor fit] | 
63 | c1ccc2c(C3=NNC(=NC4CCCCC4)SC3)c[nH]c2c1 | inconclusive [inhibitor, single point] | 
64 | COc1ccc(N2CCN(c3cc(=O)n(Cc4ccc(F)cc4)c(=O)[nH]3)CC2)cc1 | inconclusive [inhibitor, partial curve, poor fit] | 
65 | COCC(=O)n1nc(-c2ccc(C)cc2)nc1NCc1ccc(F)cc1 |  | inactive: 0.0427% [at 5.75 µM]
66 | CC(C)c1ccc(C(=O)NC(=S)Nc2ccc3[nH]c(=O)[nH]c3c2)cc1 |  | inactive: -22.7%
